Data published in PubChem BioAssay AID686978 (National Center for Advancing Translational Sciences (NCATS), 2013).
Among all 420,000 compounds or so, about 64,000 (15%) were called active. The inconclusive results got no clear call from the source; some entries with a clear call stand among them for comparison. Calls follow the shape of the dose curve; as a rule, active = well fitted inhibition curve with a large enough effect; inconclusive = small, poorly fitted or top-dose-only effect; inactive = flat fitted curve, though single readings scatter. Potencies of inconclusive entries are left out as doubtful fits.

Experiment: qHTS for Inhibitors of human tyrosyl-DNA phosphodiesterase 1 (TDP1): qHTS in cells in absence of CPT; also: nearly all actives have a fitted effect of over 55% in size
Conditions: DT40 Tdp1-/- hTDP1 cells, no CPT, ATP luminescence, 48 h; activity change, negative = growth inhibition: at 46.2 µM (top of the series) unless noted
How it was run: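 No-CPT arm: Tdp1-/-;hTDP1 DT40 cells (400/well) plus compounds, incubated ≥48 hr at 37 °C. Readout CellTiter-Glo luminescence.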
% is scaled to controls: 0 for no effect and ±100 for the full control effect; potency is read from the fitted curve at half-maximal effect; tags tell the direction and shape of the fitted curve.

| SMILES | activity change, negative = growth inhibition | Potency |
| --- | --- | --- |
| COCCNC(=O)C1(C)CCCN(Cc2sc(C)nc2C)C1 (centres undefined) | inactive: 0.769% | – |
| O=C(/C=C/c1ccc2c(c1)OCCCO2)c1ccccc1O | – | inconclusive [inhibitor, single point] |
| CCCCCC#CCC#CCC#CCC#CCCCC(=O)O | – | inactive |
| O=c1c2c3c(sc2nc2n1N=C(c1cccs1)CS2)CCCC3 | – | inconclusive [inhibitor, full curve] |
| CC(C)n1nnnc1SCC(=O)N1N=C(c2cccs2)CC1c1cccs1 (centres undefined) | – | inconclusive [inhibitor, single point] |
| COc1cc(S(=O)(=O)N2CC(=O)Nc3ccccc32)ccc1NC(C)=O | inactive: -3.25% | – |
| CC[C@@]1(c2ccccc2C)C(=O)N(C(=O)OC)N1C(=O)OC | – | inconclusive [inhibitor, single point] |
| CN(C)c1ccc(C=Nc2ccccc2C(N)=O)cc1 | – | inconclusive [inhibitor, single point] |
| O=C(/C=C/c1ccc(Cl)cc1)NC(=S)Nc1ccc(C(=O)O)cc1 | – | inconclusive [inhibitor, single point] |
| COc1cc(C(=O)NCCCN2CCCC2=O)cc(Br)c1OCc1ccccc1 | – | active: 18.4 µM |
| CCOC(=O)C[n+]1c(C)sc2ccc(OC)cc21 | – | active: 8.2 µM |
| NNC(=O)c1cnn(-c2ccccc2)c1-n1cccc1 | inactive: -12% | – |
| COc1ccc(C(=O)NCC(=O)N2CCC(Cc3ccccc3)CC2)cc1OC | – | inconclusive [inhibitor, single point] |
| CCOc1cc(/C=N/NC(=O)C(=O)N2CCCC2)ccc1O | inactive: -3.25% | – |
| CC(C)=CCC/C(C)=C/CNC(=O)CC1C[C@H](C(=O)N(C(C)C)C(C)C)[C@@]2(C)c3[nH]c4ccccc4c3CCN2C1=O (some centres undefined) | – | active: 23.1 µM |
| O=C(c1n[nH]c2ccccc12)N1CCN(S(=O)(=O)c2ccccc2)CC1 | – | inconclusive [inhibitor, single point] |
| CC(C)c1nnc2n1N=C(c1ccc(Cl)cc1)CS2 | inactive: -12.7% | – |
| CCN(CC)c1ccc(/C=C2\SC(=O)N(C(C)C)C2=O)o1 | – | active: 2.06 µM |
| Cc1onc(-c2ccccc2Cl)c1-c1nc(-c2ccncc2)no1 | – | inconclusive [inhibitor, single point] |
| Cc1nc(-n2nnc3cc(C)c(C)cc32)c2c3c(sc2n1)CCCC3 | inactive: -26.7% | – |
| Cc1cc(C(=O)NCc2ccc(S(N)(=O)=O)cc2)ccc1[N+](=O)[O-] | inactive: -26.3% | – |
| COc1ccc(NC(=S)NC(=O)/C=C/c2cccs2)cc1 | – | inconclusive [inhibitor, single point] |
| CCN(CC)CCn1c2ccccc2c2cnc(N=CN(C)C)c(C#N)c21 | – | active: 16.4 µM |
| CCC(C)NC(=O)CSc1n[nH]c(-c2cc(Cl)ccc2OC)n1 (centres undefined) | – | inconclusive [inhibitor, single point] |
| CCc1ccc(C(=O)COC(=O)c2cc([N+](=O)[O-])ccc2N2CCOCC2)cc1 | – | active: 18.4 µM |

| SMILES | activity change, negative = growth inhibition | Potency |
| --- | --- | --- |
| Cc1cc2oc(C(=O)NC3CCS(=O)(=O)C3)c(C)c2cc1C (centres undefined) | – | inconclusive [inhibitor, single point] |
| O=C(COc1ccc([N+](=O)[O-])cc1)NCCC1=CCCCC1 | – | inconclusive [inhibitor, single point] |
| O=C(Nc1ccc(Br)cc1)c1cc2nc(-c3ccccc3)cc(-c3ccccc3)n2n1 | – | inconclusive [inhibitor, single point] |
| N#Cc1cccc(C(Br)S(=O)(=O)c2ccccc2)c1 (centres undefined) | – | inconclusive [inhibitor, single point] |
| CN(C)CCNC(=O)C1Cc2c(-c3ccccc3Oc3ccccc3)ccnc2O1 (centres undefined) | – | active: 18.4 µM |
| COc1ccc(CCNc2oc(-c3ccc(C)cc3)nc2C#N)cc1OC | – | inconclusive [inhibitor, single point] |
| Cc1ccc(NC(=O)c2cc(S(=O)(=O)NC3CCCCCC3)ccc2F)cc1F | – | inconclusive [inhibitor, single point] |
| COC(=O)/C=C/c1ccc2c(c1)S(=O)(=O)N(C1CCCC1)[C@H]2CC(=O)OC | – | inconclusive [inhibitor, full curve, poor fit] |
| CCOc1ccc(OCC)c(NC(=O)CC2Oc3ccccc3NC2=O)c1 (centres undefined) | – | inconclusive [inhibitor, single point] |
| CCC(C)Sc1ccc([C@H]2N[C@@](C)(C(=O)OC)[C@H]3C(=O)N(CC)C(=O)[C@@H]23)cc1 (some centres undefined) | – | active: 18.4 µM |
| CC[n+]1c(/C=C/C=C/N(C(C)=O)c2ccccc2)sc2cc(OC)ccc21 | – | active: 2.59 µM |
| Cc1oc2ccc(OC(=O)COc3c(F)c(F)c(F)c(F)c3F)cc2c1C(=O)OC(C)C | – | inconclusive [inhibitor, partial curve, poor fit] |
| CC(NC(=O)c1ccco1)C(=O)N1CCN(c2ccccc2)CC1 (centres undefined) | inactive: -14.8% | – |
| CCn1cc(CCCC(=O)NCc2cccc(OC)c2)c2ccccc21 | – | inconclusive [inhibitor, partial curve] |
| O=C(c1ccc(S(=O)(=O)Nc2ccccc2)cc1)N1CCCC1 | – | inconclusive [inhibitor, partial curve] |
| CCOc1ccc(/C=N/Nc2ccccc2)cc1 | – | active: 14.6 µM |
| COCCN(C(=O)COC(=O)/C=C/c1ccc2c(c1)OCO2)c1c(N)n(Cc2ccccc2)c(=O)[nH]c1=O | inactive: -8.21% | – |
| O=C(Nc1ccccn1)c1cc(-c2cccnc2)nc2ccc(Br)cc12 | – | inconclusive [inhibitor, partial curve, poor fit] |
| CCN(CC(=O)Nc1ccc(C(=O)OC)cc1)Cc1ccccc1 | inactive: -2.17% | – |
| COc1ccc(-n2ccc(-c3nn(-c4cccc(C(F)(F)F)c4)ccc3=O)n2)cc1 | – | active: 18.4 µM |
| CCOc1ccc(C(=O)NC(=S)Nc2ccc(N3CCOCC3)c(Cl)c2)cc1[N+](=O)[O-] | – | active: 8.2 µM |
| C=C1C(=O)C=C[C@]2(C)C[C@@H]3OC(=O)[C@](C)(O)[C@H]3C[C@@H]12 | – | active: 1.3 µM |
| CC(=O)Nc1ccc(Sc2ccccc2C(=O)Nc2ccc(F)cc2)cn1 | – | active: 18.4 µM |
| Cc1cccc(OCC(=O)NNC(=O)C2CCN(c3ncnc4sc(C)c(C)c34)CC2)c1 | – | inconclusive [inhibitor, single point] |
| CC(CN1C(C)CCCC1C)OC(=O)c1ccccc1Br (centres undefined) | inactive: 1.5% | – |

| SMILES | activity change, negative = growth inhibition | Potency |
| --- | --- | --- |
| Cn1cc(C(F)(F)F)nc1-c1ccc(OC[C@@H](O)CNCCOc2ccc(O)c(C(N)=O)c2)cc1 | – | inconclusive [inhibitor, partial curve, poor fit] |
| O=C(NNC(=O)C1C2CCC(C2)C1C(=O)O)c1cccc(Cl)c1 (centres undefined) | inactive: 0.318% | – |
| Cc1ccc(S(=O)(=O)NCc2ccccc2)cc1C(=O)N1CCN(c2ccccc2)CC1 | – | inconclusive [inhibitor, partial curve] |
| CC(C)C(=O)Nc1cc2c3c(c1)CCC(=O)N3CCC2 | inactive: 12.6% | – |
| CCOc1ccc(NC(=O)c2sc3nc(N4CCOCC4)c4c(c3c2N)CCCC4)cc1 | – | inconclusive [inhibitor, partial curve] |
| COc1ccc(CNC(=O)CN(C)S(=O)(=O)c2ccc(Br)s2)cc1 | – | inconclusive [inhibitor, partial curve, poor fit] |
| O=C(Nc1ccc(Cl)cc1)NC1(C(=O)NCCCN2CCOCC2)CCCCC1 | inactive: -29.6% | – |
| Cn1cc(CN2CCc3c([nH]c4ccccc34)C2C2CCCCC2)cn1 (centres undefined) | – | inconclusive [inhibitor, single point] |
| Cc1ccc(NC(=O)CN(C)S(=O)(=O)c2ccc3[nH]c(=O)oc3c2)c(C)c1 | inactive: 20% | – |
| Cc1ccc(-n2[nH]c(C)c(/C=N/Nc3ccc([N+](=O)[O-])cc3[N+](=O)[O-])c2=O)cc1C | – | active: 20.6 µM |
| Cc1ccc(S(=O)(=O)NN)c(C)c1N1CCCC1=O | inactive: 2.47% | – |
| O=C(Cc1ccsc1)NNC(=O)c1cccc(Cl)c1 | inactive: 23.7% | – |
| CC(C)c1ccc(N(CC(=O)N2CCN(Cc3ccccc3)CC2)S(C)(=O)=O)cc1 | – | inconclusive [inhibitor, partial curve] |
| C=Cc1ccc(Cn2c(C)c(C(=O)NCc3ccc(Cl)c(Cl)c3)sc2=O)cc1 | – | inconclusive [inhibitor, single point] |
| O=C(O)c1cc(-c2ccc3c(c2)OCCO3)n[nH]1 | inactive: 11% | – |
| c1ccc(-c2noc(-c3cccnc3)n2)nc1 | – | inconclusive [inhibitor, single point] |
| COc1cccc(-n2c(=O)c3cc(OC)c(OC)cc3n(CC(=O)Nc3ccccc3)c2=O)c1 | – | inconclusive [inhibitor, single point] |
| COc1ccc(N=Cc2ccccc2O)cc1 | inactive: -7.19% | – |
| Cc1cc(C(=O)N2CCC(Cc3ccccc3)CC2)no1 | – | inconclusive [inhibitor, single point] |
| Cc1ccc(N2CC(NC(=O)c3ccco3)CC2=O)cc1 (centres undefined) | inactive: -0.509% | – |
| CCOc1ccc(NC(=O)CSC2=Nc3ccccc3C3=NC(CC(=O)NCc4ccccc4OC)C(=O)N23)cc1 (centres undefined) | – | inconclusive [inhibitor, single point] |
| CN1c2ccsc2C(O)=C(C(=S)Nc2ccccc2)S1(=O)=O | – | active: 23.1 µM |
| Cc1cc(C)c2c(N)c(C(=O)c3ccc(Br)cc3)oc2n1 | – | inconclusive [inhibitor, single point] |
| Cc1ccccc1S(=O)(=O)NC(=O)C1(C)CCN1C(=O)CCc1ccccc1 (centres undefined) | inactive: -0.356% | – |
